A lower IC50 marks a more sensitive line; a limit (>, <) means that the fit lies beyond the doses tested. AUC is the area under the same curve over the 256-fold range up to the top dose, as a fraction; it is 1 without any effect and falls as sensitivity rises. For part of these data: Where the top dose is marked as inferred, it comes from the curve model; the source does not state it. For part of these data: An entry number marks a drug with two screens in the source, which often give different values.

Usually IC50 stands for the midpoint of a concentration-inhibition curve.

Compound in one test: O=C(c1cc(Cc2n[nH]c(=O)c3ccccc23)ccc1F)N1CCN(C(=O)C2CC2)CC1 [Olaparib]
Nature of the test: Viability of human cancer cell lines after 72 h of drug (GDSC screen). To be noted: top dose 10 µM; screen: GDSC drug entry 1495. The procedure: (§1)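 Human cancer cell lines in 384-well plates, medium with 10% serum, drug for 72 h over a 256-fold dose range (nine 2-fold or five 4-fold steps up to the top dose). Adherent lines were fixed and stained with the nucleic acid dye Syto60, suspension lines read with resazurin; signal relative to control wells, capped at 0 and 100%. One two-parameter sigmoid per drug and line, fitted in a mixed model over all curves with the slope shared within a line.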
Regarding “EMC-BAC-2 (lung adenocarcinoma, adherent)”, the AUC amounted to 0.872 and the IC50 was more than 10 µM.
Consider “EPLC-272H (lung squamous cell carcinoma, adherent)”, for which the AUC worked out at 0.962 and the IC50 is more than 10 µM.
Consider FLO-1 (oesophagus, adherent), for which the AUC was 0.956 and the 50% inhibitory concentration (IC50) is more than 10 µM.
Taken in the same sequence, the figures for G-MEL (melanoma, adherent) were 0.984 and more than 10 µM.
Regarding H2722 (mesothelioma, adherent), the AUC was 0.942 and the IC50 is more than 10 µM.
For the cell line H2803 (mesothelioma, adherent), the AUC turned out to be 0.975 and the IC50 is more than 10 µM.
As to H2804 (mesothelioma, adherent), the AUC is 0.957 and the IC50 is more than 10 µM.
The like results for HSC-4 (head and neck, adherent) were, in that order, 0.901 and more than 10 µM.
Taken in the same sequence, the figures for Hey (ovary, adherent) were 0.905 and more than 10 µM.
Taken in the same sequence, the figures for Hs940-T (melanoma, adherent) were 0.959 and more than 10 µM.
Take JHOS-2 (ovary, adherent): the AUC stood at 0.925 and the IC50 is more than 10 µM.
The like results for JHOS-3 (ovary, adherent) were, in that order, 0.957 and more than 10 µM.
On to MDA-MB-175-VII (breast, adherent), for which the AUC was found to be 0.986 and the IC50 was more than 10 µM.
NCC021 (kidney, adherent): the AUC came to 0.98 and the IC50 is more than 10 µM.
The like results for “NCI-H196 (small cell lung carcinoma, adherent)” were, in that order, 0.987 and more than 10 µM.
The like results for “NCI-H292 (lung adenocarcinoma, adherent)” were, in that order, 0.835 and 8.61 µM.
“NCI-H1915 (large cell lung carcinoma, adherent)”: the AUC was determined as 0.95 and the IC50 was more than 10 µM.
As to OACp4C (oesophagus, adherent), the AUC came to 0.952 and the IC50 is more than 10 µM.
Consider OV-7 (ovary, adherent), for which the AUC came to 0.829 and the IC50 was more than 10 µM.
In the case of OV-17R (ovary, adherent), the AUC is 0.915 and the IC50 was more than 10 µM.
Consider OV-56 (ovary, adherent), for which the AUC is 0.983 and the IC50 was more than 10 µM.
Regarding OVCA420 (ovary, adherent), the AUC is 0.948 and the IC50 was more than 10 µM.
With OVCA433 (ovary, adherent), the AUC was determined as 0.948 and the IC50 was more than 10 µM.
In the case of OVK-18 (ovary, adherent), the AUC turned out to be 0.956 and the IC50 is more than 10 µM.
Taken in the same sequence, the figures for PWR-1E (prostate, adherent) were 0.899 and more than 10 µM.
On to SCC-4 (head and neck, adherent), for which the AUC stood at 0.95 and the IC50 was more than 10 µM.
As to SK-CO-1 (large intestine, adherent), the AUC amounted to 0.886.
As to SK-GT-2 (stomach, adherent), the AUC amounted to 0.971 and the IC50 is more than 10 µM.
Turning to T-24 (bladder, adherent), the AUC was 0.898 and the IC50 is more than 10 µM.
Take U-2-OS (osteosarcoma, adherent): the AUC amounted to 0.945 and the IC50 is more than 10 µM.
Regarding VMRC-MELG (melanoma, adherent), the AUC stood at 0.988 and the IC50 was more than 10 µM.
As for WM278 (melanoma, adherent), the AUC was determined as 0.977 and the 50% inhibitory concentration (IC50) was more than 10 µM.

Compound in a further test: Cc1ccc(-n2nc(C(C)(C)C)cc2NC(=O)Nc2ccc(OCCN3CCOCC3)c3ccccc23)cc1 [BIRB 0796]
The description is as above. To be noted: top dose 10 µM; top dose inferred. The procedure: as §1
As for DOV13 (ovary, adherent), the AUC is 0.95 and the IC50 is more than 10 µM.
Regarding “EMC-BAC-1 (lung adenocarcinoma, adherent)”, the AUC worked out at 0.947 and the IC50 was more than 10 µM.
On to “EMC-BAC-2 (lung adenocarcinoma, adherent)”, for which the AUC is 0.882 and the IC50 was more than 10 µM.
On to FLO-1 (oesophagus, adherent), for which the AUC was found to be 0.799 and the IC50 came to 7.51 µM.
Hey (ovary, adherent): the AUC was 0.918 and the IC50 is more than 10 µM.
As for JHOS-2 (ovary, adherent), the AUC amounted to 0.972 and the 50% inhibitory concentration (IC50) is more than 10 µM.
Taken in the same sequence, the figures for JHOS-3 (ovary, adherent) were 0.979 and more than 10 µM.
On to NCC021 (kidney, adherent), for which the AUC came out at 0.963 and the IC50 is more than 10 µM.
OACp4C (oesophagus, adherent): the AUC was 0.945 and the IC50 is more than 10 µM.
Taken in the same sequence, the figures for OV-7 (ovary, adherent) were 0.975 and more than 10 µM.
On to OV-17R (ovary, adherent), for which the AUC was found to be 0.876 and the IC50 is more than 10 µM.
As to OV-56 (ovary, adherent), the AUC came to 0.989 and the IC50 is more than 10 µM.
For the cell line OVCA420 (ovary, adherent), the AUC was 0.962 and the IC50 is more than 10 µM.
With OVCA433 (ovary, adherent), the AUC was determined as 0.983 and the half-inhibitory concentration (IC50) was more than 10 µM.
Consider OVK-18 (ovary, adherent), for which the AUC came to 0.96 and the IC50 is more than 10 µM.
Taken in the same sequence, the figures for PWR-1E (prostate, adherent) were 0.977 and more than 10 µM.
On to SK-CO-1 (large intestine, adherent), for which the AUC was 0.978 and the IC50 was more than 10 µM.
The like results for SK-GT-2 (stomach, adherent) were, in that order, 0.961 and more than 10 µM.
The like results for UWB1.289 (ovary, adherent) were, in that order, 0.976 and more than 10 µM.

Compound in a further test: Cc1cc(N2CCOCC2)cc2[nH]c(-c3c(NC[C@@H](O)c4cccc(Cl)c4)cc[nH]c3=O)nc12 [BMS-536924]
Described as above. The following applies: top dose 4 µM; screen: GDSC drug entry 1091; top dose inferred. The procedure: as §1
On to A2058 (melanoma, adherent), for which the AUC was determined as 0.964 and the IC50 is more than 4 µM.
For the cell line ABC-1 (lung adenocarcinoma, adherent), the AUC was determined as 0.681 and the half-inhibitory concentration (IC50) is 0.898 µM.
Consider “DMS-53 (small cell lung carcinoma, adherent)”, for which the AUC was 0.942 and the IC50 was more than 4 µM.
Turning to DOV13 (ovary, adherent), the AUC was 0.804 and the IC50 amounted to 2.37 µM.
Turning to “EMC-BAC-1 (lung adenocarcinoma, adherent)”, the AUC is 0.816 and the IC50 turned out to be 2.61 µM.
Taken in the same sequence, the figures for “EMC-BAC-2 (lung adenocarcinoma, adherent)” were 0.868 and more than 4 µM.
Taken in the same sequence, the figures for “EPLC-272H (lung squamous cell carcinoma, adherent)” were 0.835 and 3.12 µM.
FLO-1 (oesophagus, adherent): the AUC stood at 0.822 and the IC50 is 3.89 µM.
In the case of G-MEL (melanoma, adherent), the AUC is 0.939 and the concentration for half-maximal inhibition (IC50) was more than 4 µM.
For H2722 (mesothelioma, adherent), the AUC worked out at 0.97 and the half-inhibitory concentration (IC50) is more than 4 µM.
As for H2803 (mesothelioma, adherent), the AUC was 0.919 and the IC50 is more than 4 µM.
On to H2804 (mesothelioma, adherent), for which the AUC stood at 0.914 and the IC50 was more than 4 µM.
In the case of HSC-4 (head and neck, adherent), the AUC worked out at 0.755 and the IC50 came out at 1.78 µM.
Hey (ovary, adherent): the AUC stood at 0.963 and the IC50 is more than 4 µM.

The values are drawn from the supplement of paper PMC4967469.
